Our source for the binding signal values is publication PMC12820563, “FoxP3 forms a head-to-head dimer in vivo and stabilizes its multimerization on adjacent microsatellites”.

The other results are listed elsewhere or left out.

The experiment addresses T1, MBP-FoxP1dN (Mus musculus, UniProt P58462 326-579).
T1 sequence: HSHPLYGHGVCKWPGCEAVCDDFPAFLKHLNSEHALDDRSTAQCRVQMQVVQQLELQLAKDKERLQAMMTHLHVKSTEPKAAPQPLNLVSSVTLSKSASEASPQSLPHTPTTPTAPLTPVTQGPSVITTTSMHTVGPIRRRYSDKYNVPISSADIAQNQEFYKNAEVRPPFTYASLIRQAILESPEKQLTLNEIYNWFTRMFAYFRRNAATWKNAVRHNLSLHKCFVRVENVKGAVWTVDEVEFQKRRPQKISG
The experiment in a line: PD-seq (MBP pull-down with sequencing); 20 mM Tris-HCl pH 7.5, 100 mM NaCl, 1.5 mM MgCl2, 0.4 uM protein, 0.1 uM dsDNA library, 30 min, room temperature, amylose pull-down; high values mean tight binding. Particulars: protein: recombinant; tags: His6-MBP; chain copies: 2; dsDNA, one strand shown. Put shortly:
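The N-terminus-lacking fragment of mouse FoxP3 or FoxP1 carried a His6-MBP tag and was expressed in E. coli. At 0.4 µM it was incubated with 0.1 µM Klenow-filled degenerate double-stranded DNA library for 30 min at room temperature in Tris pH 7.5 buffer with NaCl and MgCl2, and complexes were caught on amylose resin, washed three times, released with proteinase K, PCR-barcoded and Illumina-sequenced. Binding is reads-per-million enrichment of pull-down over input with replicates pooled.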
With “GATGATTGTTCTCCCAGCTGATGAATTGTGAGGATCGAGTAAACAAATTTTCCTAATCTTTCTGTTCAAGCGCCATCTAC”, the binding signal was 0.92 RPM ratio (pull-down/input).
In the case of “GATGATTGTTCTCCCAGCTGATGAATTCTTACAATCGAGTAAACAAATTTTCCTAATCTTTCTGTTCAAGCGCCATCTAC”, the binding signal is 1.13 RPM ratio (pull-down/input).
As for “GATGATTGTTCTCCCAGCTGATGAATTGACACCATCGAGTAAACAAATTTTCCTAATCTTTCTGTTCAAGCGCCATCTAC”, the binding signal was 1.24 RPM ratio (pull-down/input).
As for “GATGATTGTTCTCCCAGCTGATGAATTAGTCTATTCGAGTAAACAAATTTTCCTAATCTTTCTGTTCAAGCGCCATCTAC”, the binding signal is 0.914 RPM ratio (pull-down/input).
With “GATGATTGTTCTCCCAGCTGATGAATTCCCGTCGTCGAGTAAACAAATTTTCCTAATCTTTCTGTTCAAGCGCCATCTAC”, the binding signal was 0.775 RPM ratio (pull-down/input).
Consider “GATGATTGTTCTCCCAGCTGATGAATTCGATTGCTCGAGTAAACAAATTTTCCTAATCTTTCTGTTCAAGCGCCATCTAC”, for which the binding signal is 0.842 RPM ratio (pull-down/input).
As for “GATGATTGTTCTCCCAGCTGATGAATTGTGCTTCTCGAGTAAACAAATTTTCCTAATCTTTCTGTTCAAGCGCCATCTAC”, the binding signal is 1.04 RPM ratio (pull-down/input).
In the case of “GATGATTGTTCTCCCAGCTGATGAATTTAAGACTTCGAGTAAACAAATTTTCCTAATCTTTCTGTTCAAGCGCCATCTAC”, the binding signal is 0.81 RPM ratio (pull-down/input).
Turning to “GATGATTGTTCTCCCAGCTGATGAATTCGTTATTTCGAGTAAACAAATTTTCCTAATCTTTCTGTTCAAGCGCCATCTAC”, the binding signal is 1.14 RPM ratio (pull-down/input).
Consider “GATGATTGTTCTCCCAGCTGATGAATTAGTCTGTTCGAGTAAACAAATTTTCCTAATCTTTCTGTTCAAGCGCCATCTAC”, for which the binding signal was 0.901 RPM ratio (pull-down/input).
For the sequence “GATGATTGTTCTCCCAGCTGATGAATTGCTGTGATCGAGTAAACAAATTTTCCTAATCTTTCTGTTCAAGCGCCATCTAC”, the binding signal is 1.12 RPM ratio (pull-down/input).
Consider “GATGATTGTTCTCCCAGCTGATGAATTGCGCGGTTCGAGTAAACAAATTTTCCTAATCTTTCTGTTCAAGCGCCATCTAC”, for which the binding signal is 1.07 RPM ratio (pull-down/input).
Consider “GATGATTGTTCTCCCAGCTGATGAATTTCCCGACTCGAGTAAACAAATTTTCCTAATCTTTCTGTTCAAGCGCCATCTAC”, for which the binding signal is 0.776 RPM ratio (pull-down/input).
In the case of “GATGATTGTTCTCCCAGCTGATGAATTAACTCATTCGAGTAAACAAATTTTCCTAATCTTTCTGTTCAAGCGCCATCTAC”, the binding signal is 0.93 RPM ratio (pull-down/input).
Take “GATGATTGTTCTCCCAGCTGATGAATTGGATTTATCGAGTAAACAAATTTTCCTAATCTTTCTGTTCAAGCGCCATCTAC”: the binding signal is 1.1 RPM ratio (pull-down/input).
As to “GATGATTGTTCTCCCAGCTGATGAATTACAGATCTCGAGTAAACAAATTTTCCTAATCTTTCTGTTCAAGCGCCATCTAC”, the binding signal was 1.14 RPM ratio (pull-down/input).
With “GATGATTGTTCTCCCAGCTGATGAATTCTTACATTCGAGTAAACAAATTTTCCTAATCTTTCTGTTCAAGCGCCATCTAC”, the binding signal was 0.965 RPM ratio (pull-down/input).
On to “GATGATTGTTCTCCCAGCTGATGAATTGATTACATCGAGTAAACAAATTTTCCTAATCTTTCTGTTCAAGCGCCATCTAC”, for which the binding signal is 1.58 RPM ratio (pull-down/input).
On to “GATGATTGTTCTCCCAGCTGATGAATTCCTGTTTTCGAGTAAACAAATTTTCCTAATCTTTCTGTTCAAGCGCCATCTAC”, for which the binding signal is 2.04 RPM ratio (pull-down/input).
In the case of “GATGATTGTTCTCCCAGCTGATGAATTGGGTTAGTCGAGTAAACAAATTTTCCTAATCTTTCTGTTCAAGCGCCATCTAC”, the binding signal was 0.802 RPM ratio (pull-down/input).
“GATGATTGTTCTCCCAGCTGATGAATTGGCTCTATCGAGTAAACAAATTTTCCTAATCTTTCTGTTCAAGCGCCATCTAC”: the binding signal was 0.905 RPM ratio (pull-down/input).
Regarding “GATGATTGTTCTCCCAGCTGATGAATTAAACTCGTCGAGTAAACAAATTTTCCTAATCTTTCTGTTCAAGCGCCATCTAC”, the binding signal is 0.998 RPM ratio (pull-down/input).
For “GATGATTGTTCTCCCAGCTGATGAATTGACCGGATCGAGTAAACAAATTTTCCTAATCTTTCTGTTCAAGCGCCATCTAC”, the binding signal is 0.857 RPM ratio (pull-down/input).
For “GATGATTGTTCTCCCAGCTGATGAATTGGGAGACTCGAGTAAACAAATTTTCCTAATCTTTCTGTTCAAGCGCCATCTAC”, the binding signal was 0.778 RPM ratio (pull-down/input).
As to “GATGATTGTTCTCCCAGCTGATGAATTTCGGGGGTCGAGTAAACAAATTTTCCTAATCTTTCTGTTCAAGCGCCATCTAC”, the binding signal was 0.798 RPM ratio (pull-down/input).
Turning to “GATGATTGTTCTCCCAGCTGATGAATTAACACAATCGAGTAAACAAATTTTCCTAATCTTTCTGTTCAAGCGCCATCTAC”, the binding signal is 1.57 RPM ratio (pull-down/input).
Turning to “GATGATTGTTCTCCCAGCTGATGAATTTTACCCCTCGAGTAAACAAATTTTCCTAATCTTTCTGTTCAAGCGCCATCTAC”, the binding signal was 0.863 RPM ratio (pull-down/input).
For “GATGATTGTTCTCCCAGCTGATGAATTGCAAAAATCGAGTAAACAAATTTTCCTAATCTTTCTGTTCAAGCGCCATCTAC”, the binding signal is 1.55 RPM ratio (pull-down/input).
The result for “GATGATTGTTCTCCCAGCTGATGAATTCAGTCAGTCGAGTAAACAAATTTTCCTAATCTTTCTGTTCAAGCGCCATCTAC” reads 0.809 RPM ratio (pull-down/input); that for “GATGATTGTTCTCCCAGCTGATGAATTCTATTACTCGAGTAAACAAATTTTCCTAATCTTTCTGTTCAAGCGCCATCTAC”, 0.895 RPM ratio (pull-down/input); that for “GATGATTGTTCTCCCAGCTGATGAATTTATCCATTCGAGTAAACAAATTTTCCTAATCTTTCTGTTCAAGCGCCATCTAC”, 1.11 RPM ratio (pull-down/input).
In the case of “GATGATTGTTCTCCCAGCTGATGAATTTGCGTATTCGAGTAAACAAATTTTCCTAATCTTTCTGTTCAAGCGCCATCTAC”, the binding signal is 1.1 RPM ratio (pull-down/input).
The result for “GATGATTGTTCTCCCAGCTGATGAATTGCCTCCCTCGAGTAAACAAATTTTCCTAATCTTTCTGTTCAAGCGCCATCTAC” reads 0.991 RPM ratio (pull-down/input).
The result for “GATGATTGTTCTCCCAGCTGATGAATTACTAGTTTCGAGTAAACAAATTTTCCTAATCTTTCTGTTCAAGCGCCATCTAC” reads 1.16 RPM ratio (pull-down/input); that for “GATGATTGTTCTCCCAGCTGATGAATTACCGCCTTCGAGTAAACAAATTTTCCTAATCTTTCTGTTCAAGCGCCATCTAC”, 1 RPM ratio (pull-down/input); that for “GATGATTGTTCTCCCAGCTGATGAATTCGTTGCATCGAGTAAACAAATTTTCCTAATCTTTCTGTTCAAGCGCCATCTAC”, 1.19 RPM ratio (pull-down/input).
Consider “GATGATTGTTCTCCCAGCTGATGAATTTGTTGAGTCGAGTAAACAAATTTTCCTAATCTTTCTGTTCAAGCGCCATCTAC”, for which the binding signal is 1.21 RPM ratio (pull-down/input).
As for “GATGATTGTTCTCCCAGCTGATGAATTGTCAAGTTCGAGTAAACAAATTTTCCTAATCTTTCTGTTCAAGCGCCATCTAC”, the binding signal was 1.02 RPM ratio (pull-down/input).
As for “GATGATTGTTCTCCCAGCTGATGAATTCACTCGATCGAGTAAACAAATTTTCCTAATCTTTCTGTTCAAGCGCCATCTAC”, the figure is 0.917 RPM ratio (pull-down/input).
As for “GATGATTGTTCTCCCAGCTGATGAATTGGTTTTTTCGAGTAAACAAATTTTCCTAATCTTTCTGTTCAAGCGCCATCTAC”, the figure is 1.15 RPM ratio (pull-down/input).
